# Source: the RNAGym collection of RNA variant scans (doi:10.1073/pnas.2313332121)
# Variants at the floor of the assay are shown more often than the library holds them.
# B1: TPR 5TU (parent)
# chain: GGAUCUUCUCGAUCUAACAAAAAAGACAAAUCUGCCACAAAGCUUGAGAGCAUCUUCGGAUGCAGAGGCGGCAGCCUUCGGUGGCGCGAUAGCGCCAACGUUCUCAACUAUGACACGCAAAACGCGUGCUCCGUUGAAUGGAGUUUAUCAUG
# Variants of: B1
# Assay: polymerase ribozyme fitness, log enrichment relative to wild type (log ratio); higher = more active; in vitro selection for triplet polymerase activity
# Summary of the method: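 Only genotypes with ≥10 input reads and ≥1 read per output were kept after Illumina sequencing of input and output libraries. These libraries were PCR-built, transcribed mutants of each subunit of a heterodimeric triplet polymerase ribozyme, each put through one triplicate in vitro selection round with frozen incubation at −7 °C, gel excision of extended constructs, streptavidin-bead capture and RT-PCR. Fitness is a logarithmic ratio of genotype enrichment to wild-type enrichment, from inverse-variance-weighted replicate averages, with the logarithm in base 2.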
row,Variant,polymerase ribozyme fitness (log ratio)
1,C10A A23C C57U G74A G92C A98U G117C G124A,≤ -4.2
2,U9A A16G A30U G88A C132U G136A U144A,≤ -4.2
3,U9C G58C U134G A150U,≤ -4.2
4,U9A G11U A22U G58C A66U A98G C116U,≤ -4.2
5,C8U G88U G92A,≤ -4.2
6,C10A A28U G34U A52C C87A C93U G112C,≤ -4.2
7,U9C A24C A40C C93A C105G G141C,≤ -4.2
8,C10A A16U C75G G84U G152C,≤ -4.2
9,U9A U31G U55A G84A G94C C99U,≤ -4.2
10,U9G A17C A26U C36A A60G G83C G86U A97C U101C A106G C132U,≤ -4.2
11,U9A A19U G68C C93U A113U,≤ -4.2
12,U9G G11C C27U A28G A40C U53A C54A G92U C96U,≤ -4.2
13,U9G A29G C85U A121U G128U,≤ -4.2
14,U9A C32G C54A G86C U109G G136A,≤ -4.2
15,C10A A40U C93G C103U,≤ -4.2
16,U9C A37C G59U G62U G83C A142U,≤ -4.2
17,U9G A12C A16U U31A G62A G71A G80C C87U C108U,≤ -4.2
18,U9C A52G U53A C114G U145G,≤ -4.2
19,U9C A41G A60U A66U G100C,≤ -4.2
20,U9C G42C G74C G133C U144C,≤ -4.2
21,C8U G88U G94A,≤ -4.2

row,Variant,polymerase ribozyme fitness (log ratio)
1,U9G C69A U102C,≤ -4.2
2,U9A C85U G86U C87A G136C,≤ -4.2
3,U9G A17U G58C G68U C93G C103A U134C,≤ -4.2
4,U9A U13C A37C G42C C72U C85G G133C,≤ -4.2
5,U9G A29U A40C A73G C85A U101G U151A,≤ -4.2
6,U9G A40G A41C G46A G62A G81A A106G U109C G117C G141C,≤ -4.2
7,U9G C10U U77G G83A A110G,≤ -4.2
8,C10A A19U A23G A24G C69A G80A C85U C87U,≤ -4.2
9,U9C A28C C32G G42A A47C A60C C85U A97U C132G G133U,≤ -4.2
10,U9C U31G C38A G65A A66G G74A C87U G124U U139A,≤ -4.2
11,C10A A17C A30G U104A A137C,≤ -4.2
12,U9A A29U C57G G94U C99G A119C,≤ -4.2
13,U9G G11C A16G C54U C69A G143A,≤ -4.2
14,U9C A12C C57U C63U G74C A119G U146G,≤ -4.2
15,U9A C87A,≤ -4.2
16,U9A A23C C32U C72G G80A G81A,≤ -4.2
17,C8U G83U G92A C108A G112C U139G,≤ -4.2
18,U9G A26C A30G G83C C93U A107U,≤ -4.2
19,U9G A16U G80A G83C,-4.08
20,C10A A26U U33A U53G C54A U55A A110C A122U G133U U145A,≤ -4.2
21,U9C A47U U53G A106C A110G G136A,≤ -4.2

row,Variant,polymerase ribozyme fitness (log ratio)
1,U9C C57U G70U U82G C95G,≤ -4.2
2,U9A A28U A37C C57A C85A,≤ -4.2
3,U9G U31G G65C C79G C85U C131G,≤ -4.2
4,U9A G11A C27U G84U,≤ -4.2
5,U9C G62C G70C C99G G126A,≤ -4.2
6,U9C C51U C93U C103U A150G,≤ -4.2
7,C8U G74U G83U U104G A119C,≤ -4.2
8,U9A A20C G88U,≤ -4.2
9,U9C C99A G117A,≤ -4.2
10,U9G C18U A22G A29U C87G A91U C108G G124C C149G,≤ -4.2
11,U9A A16U U56A G84A C131U,≤ -4.2
12,C8U G50C A73G U77C G92U A107U,≤ -4.2
13,C10A A40U G42A C75U C87U,≤ -4.2
14,U9A U55A C57A A66C C79U C96G,≤ -4.2
15,C10A A40C G68A G84A G94A G117A C132G U144C,≤ -4.2
16,U9G A19G C36U U134C,≤ -4.2
17,U9G C85U G92U U145A,≤ -4.2
18,U9G C96A A97C C105A A107C,≤ -4.2
19,U9G A17G A41G U53A U77G G84U C116A G141A A147G,≤ -4.2
20,U9G C27G U55A C57A G59A,≤ -4.2
21,U9A C57A C87U C93U C105U A119G A147G,≤ -4.2

row,Variant,polymerase ribozyme fitness (log ratio)
1,U9A U15C G48A G50C C96A G133C,≤ -4.2
2,U9G G59U C87G A97U A107U A150U,≤ -4.2
3,C10A A20G A23C A24U A26G C85G A91G G100U A115G,≤ -4.2
4,U9G G50C G68A C87A,≤ -4.2
5,U9A A23C U31G C38U A52C G70C G71C C76U G86U C99G,≤ -4.2
6,U9G C35U G92A G136A U151G,≤ -4.2
7,U9C A12U G68A C87A A97U,≤ -4.2
8,C8U U9G C10U A30C A49C C57A C99U A120U G143U U148G,≤ -4.2
9,U9C C76U,-2.74
10,U9G U15G G68U A120G,≤ -4.2
11,U9C C85G A113C U130C C131U,≤ -4.2
12,U9A U44A C54A G58U G62C C93A A150C,≤ -4.2
13,U9G A21C U44G G81A A91U C93U C118A,≤ -4.2
14,U9G U53A A66G U78C U102G U148A G152C,≤ -4.2
15,U9G A23C U61A G86C A121C,≤ -4.2
16,C8U G84U,-4.13
17,U9A G84A C149A,≤ -4.2
18,U9A G68A A89U,≤ -4.2
19,U9C A37U U134G G140C G152U,≤ -4.2
20,U9G A29G A60U C76A C87A G100A G124C U127A G140C C149U,≤ -4.2
21,U9G C18U A39G A49C C51A G94U A106G,≤ -4.2
